The supplement of paper PMC4967469

Tests used:
Assay in all cases: Viability of human cancer cell lines after 72 h of drug (GDSC screen)
GW-2580 = compound: COc1ccc(COc2ccc(Cc3cnc(N)nc3N)cc2OC)cc1 [GW-2580]; settings: top dose 20 µM; top dose inferred
Procedure: (§1)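 Human cancer cell lines in 384-well plates, medium with 10% serum, drug for 72 h over a 256-fold dose range (nine 2-fold or five 4-fold steps up to the top dose). Adherent lines were fixed and stained with the nucleic acid dye Syto60, suspension lines read with resazurin; signal relative to control wells, capped at 0 and 100%. One two-parameter sigmoid per drug and line, fitted in a mixed model over all curves with the slope shared within a line.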

Lenalidomide = compound: Nc1cccc2c1CN(C1CCC(=O)NC1=O)C2=O [Lenalidomide]; settings: top dose 5 µM; top dose inferred
Procedure: as §1

SGC0946 = compound: CC(C)N(CCCNC(=O)Nc1ccc(C(C)(C)C)cc1)C[C@H]1O[C@@H](n2cc(Br)c3c(N)ncnc32)[C@H](O)[C@@H]1O [SGC0946]; settings: top dose 0.5 µM; top dose inferred
Procedure: as §1

| Cell Line | AUC (GW-2580) | IC50 (GW-2580) [µM] | AUC (Lenalidomide) | IC50 (Lenalidomide) [µM] | AUC (SGC0946) | IC50 (SGC0946) [µM] |
| --- | --- | --- | --- | --- | --- | --- |
| CADO-ES1 (Ewing sarcoma, suspension) | 0.987 | > 20 | 0.977 | > 5 | 0.958 | > 0.5 |
| COR-L321 (lung, suspension) | 0.989 | > 20 | 0.974 | > 5 | 0.988 | > 0.5 |
| CRO-AP2 (B-cell lymphoma, suspension) |  |  | 0.735 | 1.31 | 0.982 | > 0.5 |
| D-247MG (glioma, adherent) | 0.98 | > 20 | 0.979 | > 5 | 0.977 | > 0.5 |
| D-336MG (glioma, adherent) | 0.956 | > 20 | 0.977 | > 5 | 0.978 | > 0.5 |
| D-423MG (glioma, adherent) | 0.953 | > 20 | 0.98 | > 5 | 0.969 | > 0.5 |
| D-566MG (glioma, adherent) | 0.974 | > 20 | 0.971 | > 5 | 0.984 | > 0.5 |
| DIFI (large intestine, adherent) |  |  | 0.987 | > 5 | 0.971 | > 0.5 |
| DOV13 (ovary, adherent) | 0.979 | > 20 | 0.984 | > 5 | 0.979 | > 0.5 |
| EMC-BAC-1 (lung adenocarcinoma, adherent) | 0.967 | > 20 | 0.983 | > 5 | 0.976 | > 0.5 |
| EMC-BAC-2 (lung adenocarcinoma, adherent) | 0.981 | > 20 | 0.978 | > 5 | 0.978 | > 0.5 |
| ESO26 (oesophagus, adherent) | 0.989 | > 20 | 0.988 | > 5 | 0.988 | > 0.5 |
| ESO51 (oesophagus, semi-adherent) | 0.975 | > 20 | 0.935 | > 5 | 0.977 | > 0.5 |
| EW-22 (Ewing sarcoma, adherent) |  |  | 0.987 | > 5 | 0.987 | > 0.5 |
| FLO-1 (oesophagus, adherent) | 0.977 | > 20 | 0.975 | > 5 | 0.972 | > 0.5 |
| GAK (melanoma, adherent) |  |  | 0.989 | > 5 | 0.989 | > 0.5 |
| H513 (mesothelioma, semi-adherent) | 0.986 | > 20 | 0.982 | > 5 | 0.984 | > 0.5 |
| HCC-366 (non-small cell lung carcinoma, adherent) |  |  | 0.988 | > 5 | 0.987 | > 0.5 |
| Hey (ovary, adherent) | 0.985 | > 20 | 0.972 | > 5 | 0.987 | > 0.5 |
| Hs746T (stomach, adherent) | 0.949 | > 20 | 0.981 | > 5 | 0.978 | > 0.5 |
| IGROV-1 (ovary, adherent) |  |  | 0.973 | > 5 | 0.969 | > 0.5 |

| Cell Line | AUC (GW-2580) | IC50 (GW-2580) [µM] | AUC (Lenalidomide) | IC50 (Lenalidomide) [µM] | AUC (SGC0946) | IC50 (SGC0946) [µM] |
| --- | --- | --- | --- | --- | --- | --- |
| JHOS-2 (ovary, adherent) | 0.983 | > 20 | 0.979 | > 5 | 0.976 | > 0.5 |
| JHOS-3 (ovary, adherent) | 0.975 | > 20 | 0.984 | > 5 | 0.982 | > 0.5 |
| JHOS-4 (ovary, adherent) |  |  | 0.979 | > 5 | 0.976 | > 0.5 |
| KATOIII (stomach, semi-adherent) |  |  | 0.99 | > 5 | 0.985 | > 0.5 |
| KNS-62 (lung squamous cell carcinoma, adherent) |  |  | 0.951 | > 5 | 0.975 | > 0.5 |
| KYAE-1 (oesophagus, suspension) | 0.985 | > 20 | 0.967 | > 5 | 0.981 | > 0.5 |
| MC-IXC (neuroblastoma, adherent) | 0.996 | > 20 | 0.996 | > 5 | 0.996 | > 0.5 |
| MEL-HO (melanoma, adherent) |  |  | 0.986 | > 5 | 0.985 | > 0.5 |
| MHH-CALL-2 (B-cell leukaemia, suspension) |  |  | 0.994 | > 5 | 0.997 | > 0.5 |
| MKN7 (stomach, adherent) |  |  | 0.979 | > 5 | 0.982 | > 0.5 |
| MOLM-16 (acute myeloid leukaemia, suspension) |  |  | 0.773 | 1.72 | 0.988 | > 0.5 |
| MOLT-13 (T-cell lymphoblastic leukaemia, suspension) | 0.989 | > 20 | 0.973 | > 5 | 0.988 | > 0.5 |
| MOLT-16 (T-cell lymphoblastic leukaemia, suspension) |  |  | 0.992 | > 5 | 0.992 | > 0.5 |
| NB17 (neuroblastoma, adherent) | 0.952 | > 20 | 0.975 | > 5 | 0.982 | > 0.5 |
| NCC010 (kidney, adherent) |  |  | 0.986 | > 5 | 0.971 | > 0.5 |
| NCC021 (kidney, adherent) | 0.975 | > 20 | 0.983 | > 5 | 0.979 | > 0.5 |
| NCI-H146 (small cell lung carcinoma, suspension) |  |  | 0.995 | > 5 | 0.995 | > 0.5 |
| NCI-H508 (large intestine, semi-adherent) |  |  | 0.928 | > 5 | 0.961 | > 0.5 |
| NCI-H630 (large intestine, adherent) | 0.978 | > 20 | 0.976 | > 5 | 0.987 | > 0.5 |
| NCI-H835 (lung carcinoid, suspension) |  |  | 0.989 | > 5 | 0.987 | > 0.5 |
| NCI-H1105 (small cell lung carcinoma, suspension) |  |  | 0.993 | > 5 | 0.987 | > 0.5 |

| Cell Line | AUC (GW-2580) | IC50 (GW-2580) [µM] | AUC (Lenalidomide) | IC50 (Lenalidomide) [µM] | AUC (SGC0946) | IC50 (SGC0946) [µM] |
| --- | --- | --- | --- | --- | --- | --- |
| NCI-H1341 (small cell lung carcinoma, suspension) |  |  | 0.992 | > 5 | 0.99 | > 0.5 |
| NCI-H2172 (non-small cell lung carcinoma, adherent) | 0.982 | > 20 | 0.982 | > 5 | 0.979 | > 0.5 |
| NCI-N87 (stomach, adherent) |  |  | 0.955 | > 5 | 0.97 | > 0.5 |
| OACM5-1 (oesophagus, semi-adherent) | 0.986 | > 20 | 0.982 | > 5 | 0.984 | > 0.5 |
| OACp4C (oesophagus, adherent) | 0.982 | > 20 | 0.981 | > 5 | 0.97 | > 0.5 |
| OC-314 (ovary, adherent) | 0.984 | > 20 | 0.991 | > 5 | 0.981 | > 0.5 |
| OV-7 (ovary, adherent) | 0.966 | > 20 | 0.932 | > 5 | 0.972 | > 0.5 |
| OV-17R (ovary, adherent) | 0.974 | > 20 | 0.98 | > 5 | 0.973 | > 0.5 |
| OV-56 (ovary, adherent) | 0.986 | > 20 | 0.989 | > 5 | 0.985 | > 0.5 |
| OVCA420 (ovary, adherent) | 0.98 | > 20 | 0.976 | > 5 | 0.979 | > 0.5 |
| OVCA433 (ovary, adherent) | 0.977 | > 20 | 0.985 | > 5 | 0.974 | > 0.5 |
| OVK-18 (ovary, adherent) | 0.985 | > 20 | 0.926 | > 5 | 0.984 | > 0.5 |
| PEO1 (ovary, adherent) | 0.969 | > 20 | 0.987 | > 5 | 0.985 | > 0.5 |
| PWR-1E (prostate, adherent) |  |  | 0.984 | > 5 | 0.986 | > 0.5 |
| QGP-1 (pancreas, adherent) | 0.968 | > 20 | 0.968 | > 5 | 0.977 | > 0.5 |
| RCC-AB (kidney, adherent) | 0.953 | > 20 | 0.978 | > 5 | 0.978 | > 0.5 |
| RCC-ER (kidney, adherent) | 0.979 | > 20 | 0.986 | > 5 | 0.963 | > 0.5 |
| RCC-FG2 (kidney, adherent) | 0.981 | > 20 | 0.966 | > 5 | 0.975 | > 0.5 |
| RCC-JF (kidney, adherent) | 0.981 | > 20 | 0.98 | > 5 | 0.978 | > 0.5 |
| RCC-JW (kidney, adherent) | 0.922 | > 20 | 0.986 | > 5 | 0.981 | > 0.5 |
| RCC-MF (kidney, adherent) | 0.903 | > 20 | 0.98 | > 5 | 0.953 | > 0.5 |

| Cell Line | AUC (GW-2580) | IC50 (GW-2580) [µM] | AUC (Lenalidomide) | IC50 (Lenalidomide) [µM] | AUC (SGC0946) | IC50 (SGC0946) [µM] |
| --- | --- | --- | --- | --- | --- | --- |
| RCH-ACV (B-cell leukaemia, suspension) |  |  | 0.952 | > 5 | 0.991 | > 0.5 |
| RH-18 (rhabdomyosarcoma, adherent) |  |  | 0.979 | > 5 | 0.979 | > 0.5 |
| SK-GT-2 (stomach, adherent) |  |  | 0.951 | > 5 | 0.984 | > 0.5 |
| SK-GT-4 (oesophagus, adherent) | 0.978 | > 20 | 0.955 | > 5 | 0.967 | > 0.5 |
| SK-MEL-5 (melanoma, adherent) | 0.977 | > 20 | 0.919 | > 5 | 0.974 | > 0.5 |
| SK-MEL-31 (melanoma, adherent) |  |  | 0.985 | > 5 | 0.982 | > 0.5 |
| SK-MG-1 (glioma, adherent) | 0.98 | > 20 | 0.987 | > 5 | 0.979 | > 0.5 |
| SNU-61 (large intestine, adherent) | 0.979 | > 20 | 0.985 | > 5 | 0.976 | > 0.5 |
| SNU-81 (large intestine, adherent) | 0.979 | > 20 | 0.953 | > 5 | 0.98 | > 0.5 |
| SNU-407 (large intestine, adherent) | 0.977 | > 20 | 0.98 | > 5 | 0.981 | > 0.5 |
| SNU-C5 (large intestine, adherent) | 0.973 | > 20 | 0.984 | > 5 | 0.983 | > 0.5 |
| SUP-B8 (B-cell leukaemia, suspension) |  |  | 0.987 | > 5 | 0.987 | > 0.5 |
| TC-YIK (cervix, suspension) |  |  | 0.988 | > 5 | 0.989 | > 0.5 |
| TE-4 (oesophagus, adherent) | 0.977 | > 20 | 0.987 | > 5 | 0.986 | > 0.5 |
| UWB1.289 (ovary, adherent) | 0.966 | > 20 | 0.98 | > 5 | 0.973 | > 0.5 |
| VMRC-LCD (lung adenocarcinoma, adherent) |  |  | 0.991 | > 5 | 0.984 | > 0.5 |
| YH-13 (glioma, adherent) | 0.986 | > 20 | 0.964 | > 5 | 0.985 | > 0.5 |
| ZR-75-30 (breast, adherent) |  |  | 0.983 | > 5 | 0.981 | > 0.5 |

The IC50 comes from the fitted curve, where viability falls to half of the control; where the fit passes the top or lowest dose, that dose stands as a limit. AUC sums up the same curve from the lowest dose to the 256-fold higher top dose: 1 means no effect, lower means more sensitive. The top dose, if marked as inferred, is not printed in the source and was worked back from the curve model.
